{"source": "PubChem BioAssay AID651820", "about": "(National Center for Advancing Translational Sciences (NCATS), 2012)", "note": "The campaign covered roughly 340,000 compounds. About 12,000 (3.5%) were called active. The shares of active, inactive and inconclusive entries below differ from those in the screen. Calls follow the shape of the dose curve; as a rule, active = well fitted inhibition curve with a large enough effect; inconclusive = small, poorly fitted or top-dose-only effect, or another doubt; inactive = no such curve, though single readings can be large or run the other way. Potencies of inconclusive entries are left out as doubtful fits. % is scaled to controls: 0 for no effect and ±100 for the full control effect; potency is read from the fitted curve at half-maximal effect; tags tell the direction and shape of the fitted curve."}
{"assay": "qHTS Assay for Inhibitors of Hepatitis C Virus (HCV)", "settings": "Huh7.5.1 HCVcc-Cre (HCVcc is cell-culture hepatitis C virus) infection, luciferase reporter, 44 h; activity change, negative = inhibition: at 41.8 µM (top of the series) unless noted", "how_it_was_run": "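Compounds are dispensed onto cells plated 4 h earlier at 1,000 per well, with HCVcc-Cre virus (about 0.5 moi) added next. Following 44 h of culture, luminescent signal is measured for 15 sec after 15 min with substrate at room temperature.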"}
{"smiles": "O=C(CN1C(=O)NC2(CCCCCC2)C1=O)Nc1ccccc1[N+](=O)[O-]", "activity change, negative = inhibition": "inactive: -12.3%"}
{"smiles": "COc1ccc(-n2nc(C(=O)NCC(=O)N3CCN(c4ccccn4)CC3)c3ccccc3c2=O)cc1Cl", "Potency": "inconclusive [inhibitor, single point]"}
{"smiles": "CCN(CC)S(=O)(=O)c1ccc(N2CCOCC2)c(NC(=O)c2cc(=O)[nH]c3ccccc23)c1", "activity change, negative = inhibition": "inactive: 3.42%"}
{"smiles": "CCOC(=O)CCNC(=O)CCc1nnc(CCCc2ccccc2)o1", "activity change, negative = inhibition": "inactive: -7.1%"}
{"smiles": "COc1ccc2[nH]c(=O)c(CN(c3ccccc3)S(=O)(=O)c3ccccc3)cc2c1", "activity change, negative = inhibition": "inactive: -5.63%"}
{"smiles": "COC(=O)c1cc(CSC(=N)N)ccc1OCCC(C)C", "Potency": "inconclusive [inhibitor, partial curve, poor fit]"}
{"smiles": "COC(=O)C1=C(c2cccc(OCc3ccccc3)c2)C[C@@H]2CC[C@H]1N2C(=O)NCCc1ccc(F)cc1", "Potency": "inconclusive [inhibitor, single point]"}
{"smiles": "C(=N\\NC(=Nc1ccccc1)c1ccccn1)/c1ccccn1", "Potency": "inconclusive [inhibitor, single point]"}
{"smiles": "Cc1cccc(CSCCNC(=O)CCSc2ccccc2)c1", "activity change, negative = inhibition": "inactive: 24.8%"}
{"smiles": "Fc1ccc(-n2cc(-c3ccccc3)c3c(NN4CCOCC4)ncnc32)cc1", "Potency": "inconclusive [inhibitor, partial curve]"}
{"smiles": "COc1cccc(CN(C)C(=O)c2ccc(COc3ccc(Cl)cc3)cc2)c1OC", "Potency": "inconclusive [inhibitor, single point]"}
{"smiles": "Cc1cc(C)cc(NC(=O)COC(=O)c2ccc(CN3CCCC3=O)cc2)c1", "Potency": "inconclusive [inhibitor, single point]"}
{"smiles": "CCN(CC)CCN(C(=O)c1ccc2c(c1)CCCC2)c1nc2ccc(F)cc2s1", "Potency": "inconclusive [inhibitor, partial curve]"}
{"smiles": "CC12CC(NC(=O)N1c1cccc(C(=O)NCc3ccc4c(c3)OCO4)c1)c1cc(Cl)ccc1O2", "note": "(centres undefined)", "Potency": "active: 25.1 µM"}
{"smiles": "O=C1Nc2ccccc2N(O)N1c1cc(-c2ccc(Cl)cc2)[nH]n1", "activity change, negative = inhibition": "inactive: -1.02%"}
{"smiles": "CCN1CCN(Cc2ccc(OCc3ccccc3)c(OC)c2)CC1", "activity change, negative = inhibition": "inactive: -1.05%"}
{"smiles": "Cn1cc([N+](=O)[O-])c(C(=O)Nc2cc(Oc3ccccc3)cc([N+](=O)[O-])c2)n1", "Potency": "inconclusive [inhibitor, partial curve]"}
{"smiles": "CNC(=S)N1CCN(c2nc(-c3ccc(F)cc3)cs2)CC1", "Potency": "inconclusive [inhibitor, single point]"}
{"smiles": "COc1ccc(C(=O)N[C@H](C(=O)OCCCOC(=O)[C@@H](NC(=O)c2ccc(OC)cc2)C(C)C)C(C)C)cc1", "Potency": "inconclusive [inhibitor, partial curve]"}
{"smiles": "COc1ccccc1NC(=O)c1ccc(COc2ccccc2OC)o1", "Potency": "inconclusive [inhibitor, partial curve]"}
{"smiles": "O=C(Nc1ccc(N2CCCC2)c(Cl)c1)c1cccc(-c2cc3ccccc3oc2=O)c1", "Potency": "inconclusive [inhibitor, full curve]"}
{"smiles": "CC(=O)N1CCc2c(sc(NC(=O)C3CCN(S(=O)(=O)c4cccs4)CC3)c2C(N)=O)C1", "activity change, negative = inhibition": "inactive: 8.19%"}
{"smiles": "COc1ccc(OCc2cc(C(=O)N3CCN(C4CCCC4)CC3)no2)c(Cl)c1", "Potency": "inconclusive [inhibitor, single point]"}
{"smiles": "Cc1nc([N+](=O)[O-])c(Br)n1Cc1ccc(Cl)c(Cl)c1", "Potency": "inconclusive [inhibitor, single point]"}
{"smiles": "CC(=O)N1c2ccc(S(=O)(=O)NCCC(=O)NCCc3cccc(C)c3)cc2CC1C", "note": "(centres undefined)", "Potency": "inconclusive [inhibitor, single point]"}
{"smiles": "COc1ccc(C2(CNC(=O)c3ccccc3)CCOCC2)cc1", "activity change, negative = inhibition": "inactive: 14.1%"}
{"smiles": "CC(C)OC(=O)CSc1nc(N)c(C#N)c(-c2cccs2)c1C#N", "Potency": "inconclusive [inhibitor, partial curve]"}
{"smiles": "COc1ccc(-c2nc(C)sc2CC(=O)O)cc1OC", "activity change, negative = inhibition": "inactive: 17.7%"}
{"smiles": "COc1ccc(S(=O)(=O)N(CC(=O)NCCC(C)C)c2ccccc2)cc1OC", "activity change, negative = inhibition": "inactive: 4.89%"}
{"smiles": "C=CCN1C(=O)NC(=O)/C(=C\\c2ccc(-c3ccccc3[N+](=O)[O-])o2)C1=O", "activity change, negative = inhibition": "inactive: 0.711%"}
{"smiles": "CC(=O)c1c(N2CCOCC2)nc2ccc(Cl)cc2c1-c1ccccc1", "Potency": "inconclusive [inhibitor, single point]"}
{"smiles": "COc1ccc(NC(=O)N(C)C[C@H]2Oc3ccc(NC(=O)Nc4c(C)noc4C)cc3C(=O)N([C@H](C)CO)C[C@H]2C)cc1", "activity change, negative = inhibition": "inactive: 14.5%"}
{"smiles": "COc1ccc(/C=N/n2cnc3c([nH]c4ccc(F)cc43)c2=O)cc1CN1CCCC1", "Potency": "inconclusive [inhibitor, partial curve]"}
{"smiles": "Cc1cccc(C(=O)NC(C(=O)Nc2cccc(S(=O)(=O)N3CCCC3)c2)C(C)C)c1", "note": "(centres undefined)", "Potency": "inconclusive [inhibitor, single point]"}
{"smiles": "COc1cccc(-c2nc(COc3ccc(Cl)cc3Cl)no2)c1", "activity change, negative = inhibition": "inactive: -8.95%"}
{"smiles": "O=C(O)CC1SC(=Nc2cccc(O)c2)NC1=O", "note": "(centres undefined)", "activity change, negative = inhibition": "inactive: 2.33%"}
{"smiles": "CCn1c(C)nc2cc(C(=O)N/N=C(\\C)c3ccc(OC)cc3O)ccc21", "Potency": "inconclusive [inhibitor, single point]"}
{"smiles": "Cc1ccc(/C=C2/CCc3c([nH]c4ccccc34)C2=O)cc1", "Potency": "inconclusive [inhibitor, single point]"}
{"smiles": "COc1ccc(OC)c(CN2CCN(C(=O)CN3C(=O)NC4(CCCC4)C3=O)CC2)c1", "Potency": "inconclusive [inhibitor, single point]"}
{"smiles": "O=C(Nc1ccc(Cl)c(Cl)c1)c1ccco1", "Potency": "inconclusive [inhibitor, single point]"}
{"smiles": "Cc1ccc(S(=O)(=O)NCC2CCC(C(=O)N3CCN(C)CC3)CC2)cc1", "note": "(centres undefined)", "Potency": "inconclusive [inhibitor, single point]"}
{"smiles": "COc1ccc(OC)c(S(=O)(=O)N2CCCC(C(=O)NCc3ccccn3)C2)c1", "note": "(centres undefined)", "activity change, negative = inhibition": "inactive: 6.86%"}
{"smiles": "C=CCc1cccc2cc(C(=O)NC)c(=O)oc12", "Potency": "inconclusive [inhibitor, single point]"}
{"smiles": "Cc1cccc(-n2nnnc2SCC(=O)c2cc(C)n(CC3CCCO3)c2C)c1", "note": "(centres undefined)", "Potency": "inconclusive [inhibitor, partial curve, poor fit]"}
{"smiles": "Cc1ccc(-c2noc(=O)n2CC(=O)Nc2ccc(S(=O)(=O)NC3CC3)cc2)cc1", "Potency": "inconclusive [inhibitor, single point]"}
{"smiles": "O=C(Nc1ccc(NC(=O)c2ccco2)cc1)c1ccc2c(c1)OCCO2", "Potency": "inconclusive [inhibitor, full curve, poor fit]"}
{"smiles": "COc1cc(OC)cc(C(=O)Nc2nnc(Cc3ccc(OC)c(OC)c3)s2)c1", "Potency": "inconclusive [inhibitor, single point]"}
{"smiles": "Cc1nn(-c2ccccc2)c(N2CCCC2)c1/C=N/n1cnc2scc(-c3ccccc3)c2c1=O", "Potency": "inconclusive [inhibitor, single point]"}
{"smiles": "Cc1ccc(S(=O)(=O)N2CCN(c3ncnc4sccc34)CC2)cc1C", "Potency": "active: 11.2 µM"}
{"smiles": "CCN(CC)S(=O)(=O)c1cccc(C(=O)NCC2(N3CCOCC3)CCCCC2)c1", "activity change, negative = inhibition": "inactive: 7.76%"}
{"smiles": "COc1ccc(C(=O)Nc2ccc(-c3ccc(C)o3)cc2)cc1S(=O)(=O)N1CCOCC1", "Potency": "active: 2.51 µM"}
{"smiles": "COc1ccc(C2CC(=O)C3=C(C2)NC(C)=C(C#N)C3c2ccc(N(C)C)cc2)cc1", "note": "(centres undefined)", "activity change, negative = inhibition": "inactive: 12.6%"}
{"smiles": "N#Cc1ccc(C2=CC(=O)C[C@H](c3ccc(Cl)cc3)C2)cc1", "activity change, negative = inhibition": "inactive: 16.4%"}
{"smiles": "COc1ccc2cc(C(=O)Nc3ccc(F)cc3)sc(=O)c2c1OC", "Potency": "inconclusive [inhibitor, full curve, poor fit]"}
{"smiles": "O=C(NCCCN1CCCCCC1)c1ccc(CS(=O)(=O)Cc2ccccc2F)o1", "Potency": "inconclusive [inhibitor, single point]"}
{"smiles": "CCC(C)(C)n1nnnc1C(c1ccc(F)cc1)N1CCN(C(=O)c2ccco2)CC1", "note": "(centres undefined)", "activity change, negative = inhibition": "inactive: 1.89%"}
{"smiles": "Nc1cccc(-c2nc3ccccc3[nH]2)c1", "activity change, negative = inhibition": "inactive: 1%"}
{"smiles": "CCOc1ccc(C(=O)NCC(=O)NCCCSc2ccccc2)cc1OCC", "Potency": "inconclusive [inhibitor, single point]"}
{"smiles": "COC(=O)c1cc(NC(=O)Nc2ccccc2)ccc1Cl", "Potency": "inconclusive [inhibitor, full curve]"}
{"smiles": "CC1C(C)N(C(=O)CCl)c2ccccc2N1C(=O)CCl", "note": "(centres undefined)", "Potency": "active: 4.47 µM"}
{"smiles": "CCN(CC)S(=O)(=O)c1ccc2oc(C(=O)NCc3ccc(C)cc3)c(C)c2c1", "Potency": "inconclusive [inhibitor, partial curve]"}
{"smiles": "COC(=O)CSc1nc(-c2ccccc2)cc(-c2ccco2)c1C#N", "Potency": "inconclusive [inhibitor, single point]"}
{"smiles": "O=C(COC(=O)c1c(Cl)cccc1Cl)NC1CCCCC1", "Potency": "inconclusive [inhibitor, single point]"}
{"smiles": "CN(Cc1ccccc1NS(=O)(=O)c1ccc2ccccc2c1)C1CCCCC1", "activity change, negative = inhibition": "inactive: 5.92%"}
{"smiles": "CCN(CC)C(=O)c1nc[nH]c1C(=O)N1CCN(C(=O)OC(C)(C)C)CC1", "Potency": "inconclusive [inhibitor, single point]"}
{"smiles": "CC(=O)Nc1ccc(S(=O)(=O)N(C)CC(=O)OCC(=O)NC(C)C23CC4CC(CC(C4)C2)C3)cc1", "note": "(centres undefined)", "activity change, negative = inhibition": "inactive: 13.6%"}
{"smiles": "CCOC(=O)CNC(=O)Cn1cnc2c(nnn2-c2ccc(F)cc2)c1=O", "activity change, negative = inhibition": "inactive: 6.89%"}
{"smiles": "O=C(O)c1nn(CC(=O)N2CCN(c3ncc(C(F)(F)F)cc3Cl)CC2)c(=O)c2ccccc12", "Potency": "inconclusive [inhibitor, partial curve]"}
{"smiles": "O=C(Nc1nc(-c2ccccc2)cs1)C1COc2ccccc2O1", "note": "(centres undefined)", "activity change, negative = inhibition": "inactive: -10.7%"}
